# “Also recorded” adds a separate entry of the source.
# Assays:
# [1] = test system: EOL-1 and SEM target cells; assay: ADCC assay (CytoTox 96, LDH release) with human PBMC effector cells; format: cell-based; conditions: E:T=100:1, antibody 2.5 ug/mL, 4 hours
# Method: CHv62.21 and CHv62.21pAF was tested for ADCC activity in vitro. Briefly, the naked and ADC anti-FLT3 monoclonal antibodies, CHv62.21 and CHv62.21pAF were tested for their ability to mediate antibody dependent cytotoxicity activity (ADCC) using the target cell lines EOL-1 and SEM in the presence of the effector cells, normal human PBMCs using the CytoTox 96® Non-Radioactive Cytotoxicity Assay (Promega, G1780).
# One (1) day prior to performing the assay, three (3) vials of the effector cells, normal human PBMC (Hemacare, Donor ID: 1888), were thawed, washed and plated into T-175 cell culture flasks in RPMI-1640 supplemented with 10% heat inactivated fetal bovine serum. The flasks were stored in an incubator at 37° C. […]
# The test samples were each diluted to a final concentration of 2.5 ug/mL in assay buffer. […] The activity of lactate dehydrogenase in the supernatant was determined by using the colorimetric LDH Detection Kit; CytoTox 96® Non-Radioactive Cytotoxicity Assay (Promega) with absorbance readings taken at 490 nm.
# The data was analyzed by first subtracting the average of absorbance values of the Culture Medium Background wells from all absorbance values of Experimental, Effector spontaneous, Target spontaneous and Target maximum wells. Next, the average of the corrected absorbance readings was normalized and ADCC activity was calculated by using the following formula: […]
# [2] = biological target: T1, Recombinant human FLT3-Fc / biotinylated FLT3 ligand (Homo sapiens, UniProt P36888); assay: Luminex FLT3 ligand blocking assay; format: binding; conditions: biotinylated FLT3 ligand 5 ng/mL; antibody 10 μg/mL; 60 minutes
# T1 construct: purchased R and D Systems
# Excerpt: In one experiment, the CHv62.21 MAb of the invention was confirmed to not block FL. Briefly, Recombinant human FLT3-Fc was purchased from R and D Systems. This protein was immobilized onto the surface of activated Luminex microspheres using standard sulfo-NHS/EDC chemistry according to the procedure provided by Luminex. A His-tagged version of the protein, along with several other proteins were conjugated to Luminex microspheres, and served as controls in this procedure.
# In addition, FLT3 ligand was also purchased from R and D Systems. The ligand was biotinylated using Thermo Scientific EZ-Link Sulfo-NHS-LC-Biotin, No-Weigh Formula according to the manufacturer's recommendations. After two (2) hours of reacting the protein with Sulfo-NHS-LC-Biotin, unincorporated biotin was removed by dialysis against DPBS.
# The ability of FLT3 immobilized onto the surface of the microspheres to bind to its biotinylated ligand was assessed by reacting the microspheres with various concentrations of biotinylated ligand, prepared in buffer containing PBS, 2% BSA, 0.05% Tween 20, and 0.1% sodium azide, for 120 minutes at RT with gentle shaking. At the end of the incubation, the microspheres were aspirated and washed. Biotinylated FLT3 ligand bound to its immobilized receptor was detected with Streptavidin-R-Phycoerythrin (Moss, Inc.). The fluorescence associated with the microspheres was measured with the Luminex instrument.
# Finally, to assess the ability of the FLT3 antibodies to potentially block ligand, mixtures were prepared containing biotinylated FLT3 ligand at 5 ng/mL, plus the various antibodies under investigation at 10 μg/mL. These mixtures were applied to the FLT3 immobilized onto the microspheres and incubated for 60 minutes. […] Biotinylated FLT3 ligand bound to its immobilized receptor was detected with Streptavidin-R-Phycoerythrin (Moss, Inc.). The fluorescence associated with the microspheres was measured with the Luminex instrument. Antibodies with the capability to block ligand were observed by reduction in MFI (median fluorescence intensity).
# EOL-1 cells = assay: EOL-1 growth with human FLT3 ligand and antibody (Cell Titer Glo, 5 days); format: cell-based; conditions: FLT3 ligand 50, 10 or 5 ng/mL, antibody 10, 1, 0.1 μg/mL
# Method: The ability of FLT3 antibodies (CHv62.21 and v62-1b37.1) to mediate the effect of human FLT3 ligand was evaluated using the human leukemia EOL-1 cell line, which endogenously expresses FLT3. Isotype control antibody (mLys-1c3.1) was also used. […] The next day, cells were treated with 50, 10 or 5 ng/mL of human FLT3 ligand (in 25 μl of complete media) and 10, 1, 0.1 and 0 μg/mL of test antibody (in 25 μl of complete media). Media alone was used as the untreated control. […] At the end of the incubation period, 100 μl of Cell Titer Glo was added to each well and incubated for 30 minutes, shaking, at room temperature.
molecule,measurement,setting,value
"CHv62.21: FLT3 MAb, human IgG1/kappa, heavy chain SEQ ID NO: 9, light chain SEQ ID NO: 10, CHO cell ATCC PTA-121831 (antibody, listed as Homo sapiens, CHv62.21 heavy chain; CHv62.21 light chain) heavy: EVQLVESGGGLVRPGGSLRLSCAASGFTFSGYSINWVRQAPGKGLEWVSSISSSSNYIYYADSVKGRFTISRDNAKNSLYLQMNSLRAEDTAVYYCAREGFIAGTTFDAFDIWGQGTMVTVSS[skipping human IgG1 constant region] light: DIQMTQSPSSLSASVGDRVTITCRASQGIRNDLGWYQQKPGKAPKRLIYAASSLQSGVPSRFSGSGSGTEFTLTISSLQPEDFATYYCLQHNGFPYTFGQGTKLEIKRTVAAPSVFIFPPSDEQLKSGTASVVCLLNNFYPREAKVQWKVDNALQSGNSQESVTEQDSKDSTYSLSSTLTLSKADYEKHKVYACEVTHQGLSSPVTKSFNRGEC",ADCC activity,[1],does not Mediate Antibody Dependent Cytotoxicity Activity; also recorded: do not show ADCC activity
same,blocking of FLT3 ligand binding to FLT3,[2],non ligand blocker; also recorded: non FL blocker
same,effect on growth in the presence of FLT3 ligand,EOL-1 cells,Does not Interfere with FL Mediated Cell Proliferation; also recorded: does not have any effect on growth

# Source: patent US9974865B2, “Antibody drug conjugates (ADC) that bind to FLT3 proteins” (AGENSYS, INC., priority 2015, dated 2018)
